From publication PMC6381112
No constants are given. Whether binding was seen depends on the method and setting. For part of these data: Binding seen in cells or lysates may run through a third protein. Some results given as binding are weak or reduced against the parent protein; the word gives no strength. For part of these data: Tags and fused reporters may be left off the sequences shown. Blank lines part the entries; values can stand above or below the binder they belong to.

By UniProt entry, the sequences of proteins in these tests, tags left out.
UniProt Q96AC1: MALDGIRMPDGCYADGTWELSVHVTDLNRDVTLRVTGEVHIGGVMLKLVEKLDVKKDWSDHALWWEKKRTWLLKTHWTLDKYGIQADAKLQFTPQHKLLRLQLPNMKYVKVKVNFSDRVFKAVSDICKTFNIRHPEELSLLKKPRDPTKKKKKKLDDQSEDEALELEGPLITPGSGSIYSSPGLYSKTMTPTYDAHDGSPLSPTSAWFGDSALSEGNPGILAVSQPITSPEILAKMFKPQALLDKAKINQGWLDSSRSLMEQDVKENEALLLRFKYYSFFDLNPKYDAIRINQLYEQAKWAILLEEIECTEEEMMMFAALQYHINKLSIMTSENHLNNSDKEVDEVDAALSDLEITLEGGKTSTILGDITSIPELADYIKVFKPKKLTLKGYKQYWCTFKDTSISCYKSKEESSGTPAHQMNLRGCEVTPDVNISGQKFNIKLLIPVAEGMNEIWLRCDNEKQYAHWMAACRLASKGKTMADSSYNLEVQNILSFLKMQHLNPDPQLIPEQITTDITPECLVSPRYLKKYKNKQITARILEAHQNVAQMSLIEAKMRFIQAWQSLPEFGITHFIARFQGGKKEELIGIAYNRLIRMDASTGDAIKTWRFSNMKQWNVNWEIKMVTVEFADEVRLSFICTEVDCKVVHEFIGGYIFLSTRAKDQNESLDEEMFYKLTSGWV

Tests used:
[1] = molecular target: kindlin-2 (human (endogenous in A549)) (UniProt Q96AC1); assay: co-IP; NCI-H358 cell lysates, IP with monoclonal anti-kindlin-2 antibody or irrelevant mouse IgG, western blotting
[2] = molecular target: kindlin-2 (human (endogenous in A549)) (UniProt Q96AC1); assay: co-IP; A549 total cell lysates, IP with monoclonal anti-kindlin-2 antibody (clone 3A3.5) or irrelevant mouse IgG overnight at 4 °C, Protein A/G agarose, western blotting; also cells on stiff (40 kPa) or soft (0.35 kPa) hydrogels (more PYCR1 on stiff ECM) and cells on soft hydrogels with or without 10 mM MBCD (no change)
3xFLAG-kindlin-2 = 3xFLAG-kindlin-2 (UniProt Q96AC1); assay: co-IP; kindlin-2 KO A549 cells infected with lentivirus encoding 3xFLAG-kindlin-2 or control vector, IP with anti-FLAG M2 antibody, western blotting with kindlin-2 or PYCR1 antibodies
[3] = molecular target: kindlin-2 (human (endogenous in A549)) (UniProt Q96AC1); assay: co-IP; cytosolic fraction, mitochondrial fraction and total lysates of A549 cells, IP with anti-kindlin-2 antibody or irrelevant mouse IgG, western blotting; largest amount of PYCR1 from the mitochondrial fraction
mClover-kindlin-2 = mClover-kindlin-2 (UniProt Q96AC1); assay: FRET or BRET; FLIM-FRET in fixed cells co-expressing mClover-tagged kindlin-2 (donor) and mRuby-PYCR1; kindlin-2 KO cells, and A549 cells on stiff or soft hydrogels (signal increased on stiff ECM)
GST-kindlin-2 = GST-kindlin-2 (UniProt Q96AC1); assay: pull-down; GST or GST-fusion proteins bound to glutathione-Sepharose beads incubated with purified His-tagged PYCR1 (0-40 μg ml^-1) for 2 h at 4 °C; washed with 20 mM Tris pH 7.5, 150 mM NaCl, 0.1% Triton; western blotting with anti-His and anti-GST; both purified

binding [1]: binds
binding [2]: binds
B1: PYCR2 (enzyme, UniProt Q96C36 1-320)
chain: MSVGFIGAGQLAYALARGFTAAGILSAHKIIASSPEMNLPTVSALRKMGVNLTRSNKETVKHSDVLFLAVKPHIIPFILDEIGADVQARHIVVSCAAGVTISSVEKKLMAFQPAPKVIRCMTNTPVVVQEGATVYATGTHALVEDGQLLEQLMSSVGFCTEVEEDLIDAVTGLSGSGPAYAFMALDALADGGVKMGLPRRLAIQLGAQALLGAAKMLLDSEQHPCQLKDNVCSPGGATIHALHFLESGGFRSLLINAVEASCIRTRELQSMADQEKISPAALKKTLLDRVKLESPTVSTLTPSSPGKLLTRSLALGGKKD

binding [1]: binds
binding (3xFLAG-kindlin-2): binds
binding [3]: binds
binding [2]: binds
B2: pyrroline-5-carboxylate reductase 1 (PYCR1) (enzyme, UniProt P32322 1-319)
chain: MSVGFIGAGQLAFALAKGFTAAGVLAAHKIMASSPDMDLATVSALRKMGVKLTPHNKETVQHSDVLFLAVKPHIIPFILDEIGADIEDRHIVVSCAAGVTISSIEKKLSAFRPAPRVIRCMTNTPVVVREGATVYATGTHAQVEDGRLMEQLLSSVGFCTEVEEDLIDAVTGLSGSGPAYAFTALDALADGGVKMGLPRRLAVRLGAQALLGAAKMLLHSEQHPGQLKDNVSSPGGATIHALHVLESGGFRSLLINAVEASCIRTRELQSMADQEQVSPAAIKKTILDKVKLDSPAGTALSPSGHTKLLPRSLAPAGKD

binding (mClover-kindlin-2): binds
B3: mRuby-PYCR1 (enzyme, UniProt P32322 1-319)
chain: B2 chain

binding (GST-kindlin-2): binds
B4: His-tagged PYCR1 (enzyme, UniProt P32322 1-319)
chain: B2 chain

binding [1]: no binding
binding [2]: no binding
B5: pyrroline-5-carboxylate synthase (P5CS) (enzyme, UniProt P54886 1-795)
chain: MLSQVYRCGFQPFNQHLLPWVKCTTVFRSHCIQPSVIRHVRSWSNIPFITVPLSRTHGKSFAHRSELKHAKRIVVKLGSAVVTRGDECGLALGRLASIVEQVSVLQNQGREMMLVTSGAVAFGKQRLRHEILLSQSVRQALHSGQNQLKEMAIPVLEARACAAAGQSGLMALYEAMFTQYSICAAQILVTNLDFHDEQKRRNLNGTLHELLRMNIVPIVNTNDAVVPPAEPNSDLQGVNVISVKDNDSLAARLAVEMKTDLLIVLSDVEGLFDSPPGSDDAKLIDIFYPGDQQSVTFGTKSRVGMGGMEAKVKAALWALQGGTSVVIANGTHPKVSGHVITDIVEGKKVGTFFSEVKPAGPTVEQQGEMARSGGRMLATLEPEQRAEIIHHLADLLTDQRDEILLANKKDLEEAEGRLAAPLLKRLSLSTSKLNSLAIGLRQIAASSQDSVGRVLRRTRIAKNLELEQVTVPIGVLLVIFESRPDCLPQVAALAIASGNGLLLKGGKEAAHSNRILHLLTQEALSIHGVKEAVQLVNTREEVEDLCRLDKMIDLIIPRGSSQLVRDIQKAAKGIPVMGHSEGICHMYVDSEASVDKVTRLVRDSKCEYPAACNALETLLIHRDLLRTPLFDQIIDMLRVEQVKIHAGPKFASYLTFSPSEVKSLRTEYGDLELCIEVVDNVQDAIDHIHKYGSSHTDVIVTEDENTAEFFLQHVDSACVFWNASTRFSDGYRFGLGAEVGISTSRIHARGPVGLEGLLTTKWLLRGKDHVVSDFSEHGSLKYLHENLPIPQRNTN

binding [1]: no binding
binding [2]: no binding
B6: PYCRL (enzyme, UniProt Q53H96 1-274)
chain: MAAAEPSPRRVGFVGAGRMAGAIAQGLIRAGKVEAQHILASAPTDRNLCHFQALGCRTTHSNQEVLQSCLLVIFATKPHVLPAVLAEVAPVVTTEHILVSVAAGVSLSTLEELLPPNTRVLRVLPNLPCVVQEGAIVMARGRHVGSSETKLLQHLLEACGRCEEVPEAYVDIHTGLSGSGVAFVCAFSEALAEGAVKMGMPSSLAHRIAAQTLLGTAKMLLHEGQHPAQLRSDVCTPGGTTIYGLHALEQGGLRAATMSAVEAATCRAKELSRK
